These results are taken from article PMC4336329 (PLoS ONE, 2015).

Among all 310,000 compounds or so, about 2,200 (0.71%) showed an effect of 50% or more. The effect is printed as a negative number. The list shows a part of the results.

Chain of human ether-à-go-go-related gene (hERG) potassium channel (Q12809 whole entry, looked up): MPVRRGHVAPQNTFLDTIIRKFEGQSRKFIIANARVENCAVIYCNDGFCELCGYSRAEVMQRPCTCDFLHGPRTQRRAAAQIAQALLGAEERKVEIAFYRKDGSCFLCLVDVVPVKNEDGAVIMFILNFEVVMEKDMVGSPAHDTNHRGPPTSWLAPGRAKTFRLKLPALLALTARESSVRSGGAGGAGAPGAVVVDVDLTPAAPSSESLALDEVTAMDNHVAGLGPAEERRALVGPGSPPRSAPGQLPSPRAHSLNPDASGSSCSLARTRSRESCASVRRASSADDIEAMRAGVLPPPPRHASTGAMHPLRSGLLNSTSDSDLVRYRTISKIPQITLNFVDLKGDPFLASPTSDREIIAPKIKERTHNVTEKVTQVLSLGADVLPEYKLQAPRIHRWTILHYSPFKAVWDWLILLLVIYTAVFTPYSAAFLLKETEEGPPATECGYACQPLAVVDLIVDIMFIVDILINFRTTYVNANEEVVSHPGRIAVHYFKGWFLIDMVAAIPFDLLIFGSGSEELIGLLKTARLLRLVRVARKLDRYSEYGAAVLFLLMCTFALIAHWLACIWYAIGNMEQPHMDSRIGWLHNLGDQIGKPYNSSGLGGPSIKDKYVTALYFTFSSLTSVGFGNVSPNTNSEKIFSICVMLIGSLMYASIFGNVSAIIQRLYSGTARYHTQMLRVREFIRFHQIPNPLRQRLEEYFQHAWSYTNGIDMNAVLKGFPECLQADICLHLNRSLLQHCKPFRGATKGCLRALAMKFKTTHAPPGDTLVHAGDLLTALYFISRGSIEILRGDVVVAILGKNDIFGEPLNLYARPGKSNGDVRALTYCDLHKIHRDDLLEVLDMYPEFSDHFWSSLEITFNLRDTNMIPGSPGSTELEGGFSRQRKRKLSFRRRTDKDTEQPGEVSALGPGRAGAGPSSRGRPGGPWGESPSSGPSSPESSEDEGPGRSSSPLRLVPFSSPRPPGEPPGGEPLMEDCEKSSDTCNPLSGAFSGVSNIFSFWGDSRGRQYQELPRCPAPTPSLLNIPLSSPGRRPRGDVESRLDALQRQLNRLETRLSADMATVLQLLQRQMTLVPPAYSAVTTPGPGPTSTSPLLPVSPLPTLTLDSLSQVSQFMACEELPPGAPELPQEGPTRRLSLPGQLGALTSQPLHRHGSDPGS

The assay has as its target human ether-à-go-go-related gene (hERG) potassium channel (human, UniProt Q12809). Description: primary screen, population patch clamp on CHO cells stably expressing hERG.
Turning to `O=S(=O)(Cc1ccccc1)Nc1ccccc1Br`, the “hERG current change (%, negative = inhibition) at 1uM” value turned out to be 14.9%.

Take `CCOC(=O)N1CCC(NC(=O)c2ccc(CS(=O)c3cccc(C)c3)o2)CC1` (centres unmarked): the “hERG current change (%, negative = inhibition) at 1uM” value is given as 8.83%.

As for `O=C1C=C(/C=C/c2ccccc2)C[C@@H](c2ccc3c(c2)OCO3)C1`, the “hERG current change (%, negative = inhibition) at 1uM” value was 16.1%.

As for `COc1cc(C(=O)O)ccc1OCc1ccncc1`, the “hERG current change (%, negative = inhibition) at 1uM” value is on record as 14.1%.

Turning to `S=C(CN1CCCC1=S)N1CCOCC1`, the “hERG current change (%, negative = inhibition) at 1uM” value worked out at 6.25%.

Consider `COc1ccc(CCNC(=O)c2cc(-c3ccco3)on2)cc1OC`, for which the “hERG current change (%, negative = inhibition) at 1uM” value was 3.74%.

`O=C(COc1ccc(F)cc1)Nc1cc(S(=O)(=O)N2CCCCC2)ccc1N1CCCCC1`: the “hERG current change (%, negative = inhibition) at 1uM” value is recorded as 14.3%.

Turning to `Cc1ccnc(NC(=O)CNC(=O)c2ccc(Br)o2)c1`, the “hERG current change (%, negative = inhibition) at 1uM” value turned out to be 8.01%.

For the compound `COc1ccc(Cn2c(=O)[nH]c3cc(C(=O)NCCCOC(C)C)ccc3c2=O)cc1`, the “hERG current change (%, negative = inhibition) at 1uM” value amounted to 9.26%.

For `COc1ccc(-n2c(SCC(=O)N3CCCC3)nc3ccccc3c2=O)cc1`, the “hERG current change (%, negative = inhibition) at 1uM” value was 6.48%.

In the case of `Cc1cc(NC(=O)C2CC2)ncc1NC(=O)c1ccccn1`, the “hERG current change (%, negative = inhibition) at 1uM” value is 11.1%.

In the case of `COc1ccc2c(C)cc(SCC(=O)N(C)C3CCS(=O)(=O)C3)nc2c1` (centres unmarked), the “hERG current change (%, negative = inhibition) at 1uM” value worked out at 1.75%.

As for `CCOc1cccc(/C=C/C(=O)O)c1`, the “hERG current change (%, negative = inhibition) at 1uM” value worked out at 1.39%.

For `CCc1cc(=O)oc2c3c(cc(OCC(=O)NCc4cccnc4)c12)OC(C)(C)CC3`, the “hERG current change (%, negative = inhibition) at 1uM” value was found to be 0.275%.

Turning to `COc1ccc(CN2CCNC(=O)C2CC(=O)N(C)CCC2CCOCC2)cc1OC` (centres unmarked), the “hERG current change (%, negative = inhibition) at 1uM” value worked out at 13.7%.

In the case of `CN(C)S(=O)(=O)c1cc(NC(=O)CSc2cccc[n+]2[O-])ccc1Cl`, the “hERG current change (%, negative = inhibition) at 1uM” value came out at 8.48%.

On to `C#CCOCCOCCOCCNc1nc(N2CCN(C(=O)[C@H](CCC(=O)O)n3cc(C(N)Cc4ccc(O)cc4)nn3)CC2)nc(N2CCN(C(=O)[C@H](Cc3cc4ccccc4[nH]3)n3cc(C(N)[C@H](C)CC)nn3)CC2)n1.Cl` (some centres unmarked), for which the “hERG current change (%, negative = inhibition) at 1uM” value is recorded as 9.28%.

As to `O=C(COc1ccccc1)N(Cc1ccccc1)c1nc(-c2ccccc2)cs1`, the “hERG current change (%, negative = inhibition) at 1uM” value was -0.45%.

On to `CCOC(=O)c1ccccc1NC(=O)Cc1sc(-c2cccnc2)nc1-c1ccc(C)cc1`, for which the “hERG current change (%, negative = inhibition) at 1uM” value came to 6.78%.

For `Cc1nc2sc(C(c3ccco3)N3CCN(C(c4ccccc4)c4ccccc4)CC3)c(O)n2n1` (centres unmarked), the “hERG current change (%, negative = inhibition) at 1uM” value is 17.5%.

`CCOc1ccc(C(=O)NCc2cccnc2)cc1[N+](=O)[O-]`: the “hERG current change (%, negative = inhibition) at 1uM” value was -38%.

On to `O=C(O)C1CCCCC1C(=O)N1CCCC1` (centres unmarked), for which the “hERG current change (%, negative = inhibition) at 1uM” value amounted to 18.7%.

For `CC(=O)c1ccc(-n2nnnc2SCC(=O)Nc2sc(C)c(C)c2C#N)cc1`, the “hERG current change (%, negative = inhibition) at 1uM” value came out at 3.46%.

For `Nc1ccc2c(c1)Cc1ccccc1-2`, the “hERG current change (%, negative = inhibition) at 1uM” value was 6.39%.

For `CCN(CC)CCOC(=O)c1ccc([N+](=O)[O-])cc1.Cl`, the “hERG current change (%, negative = inhibition) at 1uM” value is listed as 6.45%.

Regarding `CCOC(=O)N1CCN(C(=O)c2ccc3c(=O)n(CCc4ccc(OC)c(OC)c4)c(=O)[nH]c3c2)CC1`, the “hERG current change (%, negative = inhibition) at 1uM” value amounted to 20.4%.

For `COc1ccccc1NC(=O)c1cccc(NC(=O)c2ccco2)c1`, the “hERG current change (%, negative = inhibition) at 1uM” value is on record as 1.88%.

Regarding `O=C(NCc1ccccc1)c1ccc(Oc2ccc(C(=O)NCc3ccccc3)cc2)cc1`, the “hERG current change (%, negative = inhibition) at 1uM” value is recorded as 3.93%.

With `N#C/C(=C/c1ccc(O)c(O)c1)c1nc2ccccc2[nH]1`, the “hERG current change (%, negative = inhibition) at 1uM” value worked out at 14.2%.

Consider `COc1cc(OC)cc(-c2nc3ccccc3c(=O)n2NC(=O)c2cccnc2Cl)c1`, for which the “hERG current change (%, negative = inhibition) at 1uM” value is on record as 16.5%.

As to `Cc1[nH]nc(SCC(=O)N2CCCCCC2)c1[N+](=O)[O-]`, the “hERG current change (%, negative = inhibition) at 1uM” value came out at 13.4%.

Turning to `COc1cccc(C(=O)N2CCN(C(=O)c3ccc(-c4ccccc4)cc3)CC2)c1OC`, the “hERG current change (%, negative = inhibition) at 1uM” value is -1.48%.

In the case of `COC(=O)c1ccc2[nH]c(C(C)(C)O)c(C)c2c1`, the “hERG current change (%, negative = inhibition) at 1uM” value stood at 15.8%.

`CC(Oc1ccc2c3c(c(=O)oc2c1)CCC3)C(=O)NCCCn1ccnc1` (centres unmarked): the “hERG current change (%, negative = inhibition) at 1uM” value worked out at 11.2%.

In the case of `Cc1c(C(=O)Nc2ccc(Cl)cc2)c2ccccn2c1C(=O)c1ccc([N+](=O)[O-])cc1`, the “hERG current change (%, negative = inhibition) at 1uM” value is reported as 8.01%.

As to `Cc1ccc(S(=O)(=O)Cc2ccc(C(=O)NCc3ccc4c(c3)OCO4)o2)cc1`, the “hERG current change (%, negative = inhibition) at 1uM” value worked out at 2.65%.

For the compound `O=C(CN(C1CCCCC1)C1CCCCC1)N1CCc2ccccc2C1.O=C(O)C(=O)O`, the “hERG current change (%, negative = inhibition) at 1uM” value was 8.82%.

As to `CC1CCCN(c2cc3c(cc2[N+](=O)[O-])C(=O)N(c2ccccc2)C3=O)C1` (centres unmarked), the “hERG current change (%, negative = inhibition) at 1uM” value came to 7.63%.

As for `CC(=O)Nc1ccc(S(=O)(=O)N(C)CC(=O)OCC(=O)NNC(=O)c2ccccc2F)cc1`, the “hERG current change (%, negative = inhibition) at 1uM” value came out at 14.8%.

Consider `COc1cc(CNCC(C)C)cc(Br)c1OCC(=O)Nc1ccccc1.Cl`, for which the “hERG current change (%, negative = inhibition) at 1uM” value was 4.54%.

Regarding `O=C(c1ccccc1)c1ccc(C(=O)N2CCCC(C(F)(F)F)C2)cc1` (centres unmarked), the “hERG current change (%, negative = inhibition) at 1uM” value is 5.52%.

As to `COc1ccccc1S(=O)(=O)N1CCN(S(=O)(=O)c2cccs2)CC1`, the “hERG current change (%, negative = inhibition) at 1uM” value is 12.3%.

Take `O=C1[C@H]2[C@@H](/C=C/c3ccccc3)N3C(=O)CN(CCO)C(=O)[C@@]3(Cc3ccccc3)[C@H]2C(=O)N1c1ccccc1`: the “hERG current change (%, negative = inhibition) at 1uM” value is listed as 20.9%.

For the compound `COc1ccccc1NC(=O)CC1C(=O)NCCN1C(=O)Nc1ccccc1` (centres unmarked), the “hERG current change (%, negative = inhibition) at 1uM” value is reported as 1.06%.

Regarding `NC(=O)CC(NC(=O)Cc1cccc2ccccc12)c1ccc(NCc2ccccn2)c([N+](=O)[O-])c1` (centres unmarked), the “hERG current change (%, negative = inhibition) at 1uM” value stood at 16.3%.

For `C[C@H](NC(=O)c1nc[nH]c1C(=O)NCCCCC[NH3+])C(=O)OCc1ccccc1.[Cl-]`, the “hERG current change (%, negative = inhibition) at 1uM” value is given as 15.1%.

As to `Cc1nn(C)cc1CNC(=O)Nc1cccc(Cl)c1`, the “hERG current change (%, negative = inhibition) at 1uM” value is 7.62%.

As for `Cc1cccc2nc(COc3ccc(-c4ccccc4)cc3)cn12`, the “hERG current change (%, negative = inhibition) at 1uM” value is listed as 6.42%.

In the case of `Cc1cc2c(cc1C)C(=O)NC(C)(C)C2`, the “hERG current change (%, negative = inhibition) at 1uM” value is listed as 16%.

Turning to `O=C(O)c1cc2c(cc1Br)OCCCO2`, the “hERG current change (%, negative = inhibition) at 1uM” value is listed as 3.06%.

As for `COc1ccc(C=O)cc1Cn1ccnc1.Cl`, the “hERG current change (%, negative = inhibition) at 1uM” value is recorded as 9.02%.

Turning to `COc1ccc(Cn2c(=O)[nH]c3cc(C(=O)NCCCN4CCCCC4)ccc3c2=O)cc1`, the “hERG current change (%, negative = inhibition) at 1uM” value was found to be 5.03%.

In the case of `Cc1ccc2nc(Nc3ccccc3)c(/C=N/O)c(=O)n2c1`, the “hERG current change (%, negative = inhibition) at 1uM” value worked out at 11.2%.
